# Columns and labels:
# Assay in all cases: ERK1/2 phosphorylation
# Assay type in all cases: cell-based
# Details in all cases: pERK, CV1-FlpIn cells, three-parameter logistic fit, mean ± S.E.M.
# [1] = target: T1, hCTR I300A (Homo sapiens, UniProt P30988, I300A)
# T1 construct: c-Myc (N); expressed in transfected cells
# Procedure: (§1) Cells (2.5 × 10^4 cells/well) were seeded into 96-well culture plates and incubated overnight. […] Data were normalized to the maximal response elicited by 10% FBS determined at 6 min.
# (§2) Data were corrected for radioligand occupancy using the Cheng-Prusoff equation in Prism; as such data are reported as pKi. Emax and EC50 were estimated from concentration-response curves using with a 3-parameter logistic equation in Prism (v7). These values are a composite of functional affinity, efficacy and stimulus response coupling. […] Significance was accepted at P < 0.05.
# [2] = target: T2, hCTR Y299A (Homo sapiens, UniProt P30988, Y299A)
# T2 construct: c-Myc (N); expressed in transfected cells
# Procedure: as §1, §2
# [3] = target: T3, hCTR V357A (Homo sapiens, UniProt P30988, V357A)
# T3 construct: c-Myc (N); expressed in transfected cells
# Procedure: as §1, §2
# [4] = target: T4, hCTR P363A (Homo sapiens, UniProt P30988, P363A)
# T4 construct: expressed in transfected cells
# Procedure: as §1, §2
# [5] = target: T5, hCTR N365A (Homo sapiens, UniProt P30988, N365A)
# T5 construct: c-Myc (N); expressed in transfected cells
# Procedure: as §1, §2
# [6] = target: T6, hCTR WT (Homo sapiens, UniProt P30988)
# T6 construct: expressed in transfected cells
# Procedure: as §1, §2
# [7] = target: T7, hCTR S292A (Homo sapiens, UniProt P30988, S292A)
# T7 construct: expressed in transfected cells
# Procedure: as §1, §2
# [8] = target: T8, hCTR G369A (Homo sapiens, UniProt P30988, G369A)
# T8 construct: c-Myc (N); expressed in transfected cells
# Procedure: as §1, §2
# [9] = target: T9, hCTR V375A (Homo sapiens, UniProt P30988, V375A)
# T9 construct: c-Myc (N); expressed in transfected cells
# Procedure: as §1, §2
# [10] = target: T10, hCTR N286A (Homo sapiens, UniProt P30988, N286A)
# T10 construct: c-Myc (N); expressed in transfected cells
# Procedure: as §1, §2
# [11] = target: T11, hCTR L297A (Homo sapiens, UniProt P30988, L297A)
# T11 construct: c-Myc (N); expressed in transfected cells
# Procedure: as §1, §2
# T6 sequence (P30988 25-474): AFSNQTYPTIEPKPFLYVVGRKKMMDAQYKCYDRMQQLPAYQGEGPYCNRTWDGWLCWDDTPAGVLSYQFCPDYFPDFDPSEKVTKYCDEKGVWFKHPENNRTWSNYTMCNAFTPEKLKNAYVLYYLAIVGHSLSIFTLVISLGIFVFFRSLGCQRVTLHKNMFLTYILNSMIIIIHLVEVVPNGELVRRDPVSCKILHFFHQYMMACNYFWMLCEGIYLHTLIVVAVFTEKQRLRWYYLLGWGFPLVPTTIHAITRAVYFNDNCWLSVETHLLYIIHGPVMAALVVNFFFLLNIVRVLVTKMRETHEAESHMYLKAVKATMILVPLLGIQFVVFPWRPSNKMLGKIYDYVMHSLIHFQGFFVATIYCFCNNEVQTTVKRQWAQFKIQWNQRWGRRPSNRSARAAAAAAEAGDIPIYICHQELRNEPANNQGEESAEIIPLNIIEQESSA
# T11 sequence (P30988 25-474 L297A): as the sequence (P30988 25-474) above, with L273A counted along it
# T4 sequence (P30988 25-474 P363A): as the sequence (P30988 25-474) above, with P339A counted along it
# T2 sequence (P30988 25-474 Y299A): as the sequence (P30988 25-474) above, with Y275A counted along it
# T8 sequence (P30988 25-474 G369A): as the sequence (P30988 25-474) above, with G345A counted along it
# T10 sequence (P30988 25-474 N286A): as the sequence (P30988 25-474) above, with N262A counted along it
# T9 sequence (P30988 25-474 V375A): as the sequence (P30988 25-474) above, with V351A counted along it
# T3 sequence (P30988 25-474 V357A): as the sequence (P30988 25-474) above, with V333A counted along it
# T7 sequence (P30988 25-474 S292A): as the sequence (P30988 25-474) above, with S268A counted along it
# T1 sequence (P30988 25-474 I300A): as the sequence (P30988 25-474) above, with I276A counted along it
# T5 sequence (P30988 25-474 N365A): as the sequence (P30988 25-474) above, with N341A counted along it
smiles,measurement,setting,value
CC(C)C[C@H](NC(=O)[C@H](CC(N)=O)NC(=O)[C@H](CC(N)=O)NC(=O)[C@H](CO)NC(=O)[C@H](CO)NC(=O)[C@H](CCCNC(=N)N)NC(=O)[C@@H](NC(=O)[C@H](CC(C)C)NC(=O)[C@H](Cc1ccccc1)NC(=O)[C@H](CC(N)=O)NC(=O)[C@H](C)NC(=O)[C@H](CC(C)C)NC(=O)[C@H](CCCNC(=N)N)NC(=O)[C@H](CCC(N)=O)NC(=O)[C@@H](NC(=O)[C@H](C)NC(=O)[C@@H]1CSSC[C@H](NC(=O)[C@@H](N)CCCCN)C(=O)N[C@@H](CC(N)=O)C(=O)N[C@@H]([C@@H](C)O)C(=O)N[C@@H](C)C(=O)N[C@@H]([C@@H](C)O)C(=O)N1)[C@@H](C)O)C(C)C)C(=O)NCC(=O)N1CCC[C@H]1C(=O)N[C@H](C(=O)N[C@@H](CC(C)C)C(=O)N1CCC[C@H]1C(=O)N1CCC[C@H]1C(=O)N[C@H](C(=O)N[C@@H](CC(N)=O)C(=O)N[C@H](C(=O)NCC(=O)N[C@@H](CO)C(=O)N[C@@H](CC(N)=O)C(=O)N[C@H](C(=O)N[C@@H](Cc1ccc(O)cc1)C(N)=O)[C@@H](C)O)C(C)C)[C@@H](C)O)C(C)C [rAmy],EC50,[1],33.1 nM
same,EC50,[2],60.3 nM
same,EC50,[3],34.7 nM
same,EC50,[4],30.9 nM
same,EC50,[5],18.6 nM
same,EC50,[6],64.6 nM
same,EC50,[7],17.4 nM
same,EC50,[8],18.6 nM
same,EC50,[9],123 nM
same,EC50,[10],53.7 nM
same,EC50,[11],28.2 nM
